In the supplement of paper PMC8821664:
Counter-ions that a name gives are not always drawn. The list shows a part of the results. Single values are uncertain, as repeats are few or missing.

System: Beas-2B AQP5-HiBiT reporter cells
Assay: AQP5-HiBiT luminescence relative to vehicle (ratio to vehicle); higher = higher AQP5-HiBiT protein abundance
Details: 10 µM; 18 h
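Further: monoclonal Beas-2B line stably carrying CMV promoter-driven AQP5-HiBiT, 5,000 cells per well in 384-well plates, lytic HiBiT plus LgBiT NanoLuc luminescence, FDA-approved drug library screen.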

Structure (SMILES) | AQP5-HiBiT luminescence
c1ccc(Cc2nc3ccccc3[nH]2)cc1 [Bendazol] | 1.26
COc1cc(Nc2c(C#N)cnc3cc(OCCCN4CCN(C)CC4)c(OC)cc23)c(Cl)cc1Cl [Bosutinib] | 0.927
CCCC(=O)O[C@]1(C(=O)CO)CC[C@H]2[C@@H]3CCC4=CC(=O)CC[C@]4(C)[C@H]3[C@@H](O)C[C@@]21C [Hydrocortisone butyrate] | 0.77
C[C@H](CCC(=O)O)[C@H]1CC[C@H]2[C@@H]3[C@H](O)C[C@@H]4C[C@H](O)CC[C@]4(C)[C@H]3C[C@H](O)[C@]12C [Cholic Acid] | 0.855
CO/N=C(\C(=O)N[C@@H]1C(=O)N2C(C(=O)OC(C)OC(C)=O)=C(COC(N)=O)CS[C@H]12)c1ccco1 (stereo not given in full) [Cepazine] | 0.782
C=C1[C@H](CO)[C@@H](O)C[C@@H]1n1cnc2c(=O)[nH]c(N)nc21 [Entecavir] | 0.575
Cc1nc(-c2ccc(OCC(C)C)c(C#N)c2)sc1C(=O)O [Febuxostat] | 0.386
CCN[C@H]1CN(CCCOC)S(=O)(=O)c2sc(S(N)(=O)=O)cc21 [Brinzolamide] | 0.819
N[C@H](C(=O)O)[C@H](O)c1ccc(O)c(O)c1 [Droxidopa] | 1.04
CNS(=O)(=O)Cc1ccc2[nH]cc(CCN(C)C)c2c1 [Sumatriptan succinate] | 0.547
CC[C@H]1OC(=O)[C@H](C)[C@@H](O[C@H]2C[C@@](C)(OC)[C@@H](O)[C@H](C)O2)[C@H](C)[C@@H](O[C@@H]2O[C@H](C)C[C@H](N(C)C)[C@H]2O)[C@](C)(O)C[C@@H](C)CN(C)[C@H](C)[C@@H](O)[C@]1(C)O [Azithromycin dihydrate] | 2.32
NCCc1c[nH]cn1 [Histamine] | 1.16
CC1=C(C(=O)O)N2C(=O)[C@@H](NC(=O)[C@H](N)C3=CCC=CC3)[C@H]2SC1 [Cephradine] | 1.09
Cc1cccc(C)c1NC(=O)C1CCCCN1C (stereo not given) [Mepivacaine hydrochloride] | 0.777
COC(=O)c1ccccc1O [Birch-Me] | 0.909
CN(C)CCn1nnnc1SCC1=C(C(=O)O)N2C(=O)[C@@H](NC(=O)Cc3csc(N)n3)[C@H]2SC1 [Cefotiam hydrochloride] | 0.77
CN(C)c1ccc(O)c2c1C[C@H]1C[C@H]3[C@H](N(C)C)C(O)=C(C(N)=O)C(=O)[C@@]3(O)C(O)=C1C2=O [Minocycline hydrochloride] | 0.45
CCC1(C)CC(=O)NC1=O (stereo not given) [Ethosuximide] | 0.861
CN1CCC(=C2c3ccccc3C=Cc3ccccc32)CC1 [Cyproheptadine hydrochloride] | 1.09
CCCC(CCC)C(=O)O [Valerin] | 0.918

Structure (SMILES) | AQP5-HiBiT luminescence
COc1cc2nc(N3CCN(C(=O)C4COc5ccccc5O4)CC3)nc(N)c2cc1OC (stereo not given) [Doxazosin mesylate] | 1.22
CCOC(=O)[C@H](CCc1ccccc1)N[C@@H](C)C(=O)N1CCC[C@H]1C(=O)O [Enalapril] | 0.881
NCC1CCC(C(=O)O)CC1 (stereo not given) [Amstat] | 0.946
COc1ncnc(NS(=O)(=O)c2ccc(N)cc2)c1OC [Sulfadoxine] | 1.05
CC1=C(/C=C/C(C)=C/C=C/C(C)=C/CO)C(C)(C)CCC1 [Vitamin A] | 1.05
CNC(=C[N+](=O)[O-])NCCSCc1csc(CN(C)C)n1 [Nizatidine] | 1.06
Cc1oncc1C(=O)Nc1ccc(C(F)(F)F)cc1 [Leflunomide] | 0.992
COC(=O)[C@H](c1ccccc1Cl)N1CCc2sccc2C1 [Clopidogrel] | 1.08
C[C@H]1c2cccc(O)c2C(=O)C2=C(O)[C@]3(O)C(=O)C(C(N)=O)=C(O)[C@@H](N(C)C)[C@@H]3[C@@H](O)[C@@H]21 [Doxycycline hydrochloride] | 0.574
Clc1cccc(Cl)c1NC1=NCCN1 [Clonidine hydrochloride] | 0.991
CCCCc1oc2ccc(NS(C)(=O)=O)cc2c1C(=O)c1ccc(OCCCN(CCCC)CCCC)cc1 [Dronedarone hydrochloride] | 2.56
CCCCCCCCCCCCCCCCOP(=O)([O-])OCC[N+](C)(C)C [Miltefosine] | 1.03
CCn1cc(C(=O)O)c(=O)c2cc(F)c(N3CCNC(C)C3)c(F)c21 (stereo not given) [Lomefloxacin hydrochloride] | 0.992
COc1cc2c(cc1Cc1cccc(Cl)c1F)c(=O)c(C(=O)O)cn2[C@H](CO)C(C)C [Elvitegravir(GS-9137, JTK-303)] | 0.615
N[C@@H](C(=O)N[C@@H]1C(=O)N2C(C(=O)O)=C(Cl)CS[C@H]12)c1ccccc1 [Cefaclor monohydrate] | 0.776
CC(C)[N+]1(C)[C@@H]2CC[C@H]1C[C@@H](OC(=O)C(CO)c1ccccc1)C2 (stereo not given in full) [Ipratropium bromide monohydrate] | 1.04
COC(=O)C1=C(C)NC(C)=C(C(=O)OC)C1c1ccccc1[N+](=O)[O-] [Nifedipine] | 1.19
O=C(O)c1cc(/N=N/c2ccc(O)c(C(=O)O)c2)ccc1O [Olsalazine disodium] | 0.71
CC(=O)Nc1nnc(S(N)(=O)=O)s1 [Acetazolamide] | 0.684
COc1cc([C@@H]2c3cc4c(cc3[C@@H](O[C@@H]3O[C@@H]5CO[C@@H](c6cccs6)O[C@H]5[C@H](O)[C@H]3O)[C@H]3COC(=O)[C@H]23)OCO4)cc(OC)c1O [Teniposide] | 0.582
